We go through 31 compounds from ChEMBL document CHEMBL1201862, “PubChem BioAssay data set” (2004).

The structures appear in SMILES notation.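 Values below derive from 48-hour exposures of cells grown in 96-well plates, with endpoints linearly interpolated between the two concentrations bracketing the appropriate inhibition level. GI50 marks 50% less growth.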 Active and inactive are the calls of the source. Rule as the data show it: active = GI50 up to about 1.1 µM and inactive = higher.

This assay relates to NCI-H322M. Put plainly: NCI tumour cell line growth inhibition, 48 h.
As to `Nc1ncnc2c1nc(O)n2-c1ccccc1`, the GI50 was inactive: > 100 µM.

Turning to `COC1=C(OC)C(=O)C(C/C=C/c2c(Cl)nc3sccn23)=C(C)C1=O`, the GI50 was inactive: 20.1 µM.

Consider `[N-]=[N+]=C1CNC(=O)NC1=O`, for which the GI50 was inactive: > 100 µM.

As to `CC1=NN(c2ccccc2)C(=O)/C1=C/c1ccc(O)cc1`, the GI50 is inactive: > 100 µM.

Take `Nc1ccccc1N/C(=C\C(=O)C(Cl)(Cl)Cl)c1ccccc1`: the GI50 was inactive: 31.5 µM.

For `CSc1nc(NC(C)C)c2c(n1)Sc1nc3ccccc3n1N=C2`, the GI50 was inactive: 4.12 µM.

For `CN(OC(=O)CC(=O)c1ccccc1)C(=O)Cc1ccccc1`, the GI50 is inactive: > 100 µM.

As to `O=c1ncccn1[C@@H]1O[C@H](CO)[C@H](O)C1O` (stereo partly specified), the GI50 is inactive: > 100 µM.

Consider `C=C1C(=O)O[C@@H]2C[C@@]3(C)CC(=O)C=C(C)[C@@H]3C[C@H]12`, for which the GI50 is inactive: 42.7 µM.

With `N#CC(C#N)=C1CCCS(=O)(=O)c2ccccc21`, the GI50 is inactive: > 100 µM.

With `CC1=NNC(=O)[C@H]2[C@H]1CCC1[C@@H]2CC[C@]2(C)[C@@H](O)CC[C@@H]12` (stereo partly specified), the GI50 is inactive: > 100 µM.

As to `COC(=O)c1cccc(OC)c1C#Cc1c(OC)cccc1OC`, the GI50 was inactive: > 100 µM.

`CN(Cc1cnc2nc(N)nc(N)c2n1)c1ccc(C(=O)NCCCC(=O)O)cc1`: the GI50 is inactive: 63.5 µM.

In the case of `CC(=O)C1=C(C)N(c2ccc(C)cc2)C2(O)C3=C(C(=O)c4ccccc4C3=O)C(O)=CC12Cl` (stereo unspecified), the GI50 is inactive: 38.4 µM.

As for `Nc1nc(N)c(/N=N/c2ccc(C(=O)O)c(O)c2)c(N)n1`, the GI50 is inactive: > 100 µM.

For the compound `O=C(O)CC(NC(=O)/C(=C/c1ccccc1)NC(=O)c1ccccc1)C(=O)O` (stereo unspecified), the GI50 was inactive: > 100 µM.

On to `O=C1OC(c2ccccc2)=N/C1=C/C=C/c1ccco1`, for which the GI50 is inactive: > 100 µM.

As to `Cc1c(-c2ccccc2)c(C#N)c2nnn(C3CCCCC3)c(=O)n12`, the GI50 is inactive: > 100 µM.

Take `CC(C)=CCC/C(C)=C/Cc1c(O)c(C)cc2c1[nH]c1cc(O)ccc12`: the GI50 is inactive: > 25 µM.

Turning to `CC(=O)c1cc2c3c(c1)c1cc4c(cc1c(=O)n3CC2)OCO4`, the GI50 is inactive: 25.6 µM.

Turning to `O=C(Cc1cccs1)N[C@@H]1C(=O)N2C(C(=O)OC(c3ccccc3)c3ccccc3)=C(CO)CS[C@H]12`, the GI50 is inactive: > 100 µM.

Take `ClC(Cl)(Cl)C1CCOC1n1nnc2ccccc21` (stereo unspecified): the GI50 is inactive: > 100 µM.

In the case of `CC1=Nc2ccccc2NC(c2ccoc2)C1` (stereo unspecified), the GI50 was inactive: > 100 µM.

For `CCC(=O)O[C@H]1CC[C@H]2[C@@H]3CCC4=C/C(=N/OC(=O)c5cccc6cc7ccccc7nc56)CC[C@]4(C)[C@H]3CC[C@]12C`, the GI50 is inactive: > 100 µM.

Take `CC(=O)C1=C(c2ccccc2)N(C2OC(CO)C(O)C(O)C2O)C(S)=C(C#N)C1c1ccc(Cl)cc1` (stereo unspecified): the GI50 was inactive: 35.1 µM.

For `Cc1cc(O)nc(NN2C(Cl)C(=O)C2c2ccc([N+](=O)[O-])cc2)n1` (stereo unspecified), the GI50 was inactive: 11.8 µM.

Take `Nc1nc(=S)n(-c2ccc(Cl)cc2)c2nc3ccccc3cc12`: the GI50 was inactive: 28.3 µM.

Consider `O=C1c2ccccc2C(=O)N1n1c(Cc2ccc([N+](=O)[O-])cc2)n[nH]c1=O`, for which the GI50 was inactive: > 100 µM.

Take `Cc1ccc(S(=O)(=O)[N-]C2C(=O)c3ccccc3C(=O)C2[n+]2cccc(C(N)=O)c2)cc1` (stereo unspecified): the GI50 was inactive: 38.5 µM.

As for `CC1(C)CCC[C@]2(C)[C@@H]1CC[C@@]13O[C@@H]1C1=C(CO)C(=O)O[C@]14O[C@@H]4[C@@H]23`, the GI50 is inactive: 14.9 µM.

As to `O=C1C2C3C=C4c5ccccc5N(c5ccccc5)C4([C@@H]2C(=O)N1c1ccc(F)cc1)[C@H]1C(=O)N(c2ccc(F)cc2)C(=O)[C@@H]31` (stereo partly specified), the GI50 is inactive: > 100 µM.
